{"source": "PubChem BioAssay AID1347165", "about": "(National Center for Advancing Translational Sciences (NCATS), 2019)", "note": "Out of some 220,000 compounds screened, about 5,700 (2.6%) were called active. Inconclusive means that the source gave no clear call. Such entries were picked first, then a sample of the others. Calls follow the shape of the dose curve; as a rule, active = well fitted inhibition curve with a large enough effect; inconclusive = small, poorly fitted or top-dose-only effect; inactive = no such curve, though single readings can be large or run the other way. A potency beside an inconclusive call is a rough fit, not a confirmed value. Potency is read from the fitted curve at half-maximal effect; tags tell the direction and shape of the fitted curve.", "data": [{"target": "Lysine-specific demethylase 5B (Homo sapiens) (UniProt Q9UGL1)", "sequence (Q9UGL1 whole entry, looked up)": "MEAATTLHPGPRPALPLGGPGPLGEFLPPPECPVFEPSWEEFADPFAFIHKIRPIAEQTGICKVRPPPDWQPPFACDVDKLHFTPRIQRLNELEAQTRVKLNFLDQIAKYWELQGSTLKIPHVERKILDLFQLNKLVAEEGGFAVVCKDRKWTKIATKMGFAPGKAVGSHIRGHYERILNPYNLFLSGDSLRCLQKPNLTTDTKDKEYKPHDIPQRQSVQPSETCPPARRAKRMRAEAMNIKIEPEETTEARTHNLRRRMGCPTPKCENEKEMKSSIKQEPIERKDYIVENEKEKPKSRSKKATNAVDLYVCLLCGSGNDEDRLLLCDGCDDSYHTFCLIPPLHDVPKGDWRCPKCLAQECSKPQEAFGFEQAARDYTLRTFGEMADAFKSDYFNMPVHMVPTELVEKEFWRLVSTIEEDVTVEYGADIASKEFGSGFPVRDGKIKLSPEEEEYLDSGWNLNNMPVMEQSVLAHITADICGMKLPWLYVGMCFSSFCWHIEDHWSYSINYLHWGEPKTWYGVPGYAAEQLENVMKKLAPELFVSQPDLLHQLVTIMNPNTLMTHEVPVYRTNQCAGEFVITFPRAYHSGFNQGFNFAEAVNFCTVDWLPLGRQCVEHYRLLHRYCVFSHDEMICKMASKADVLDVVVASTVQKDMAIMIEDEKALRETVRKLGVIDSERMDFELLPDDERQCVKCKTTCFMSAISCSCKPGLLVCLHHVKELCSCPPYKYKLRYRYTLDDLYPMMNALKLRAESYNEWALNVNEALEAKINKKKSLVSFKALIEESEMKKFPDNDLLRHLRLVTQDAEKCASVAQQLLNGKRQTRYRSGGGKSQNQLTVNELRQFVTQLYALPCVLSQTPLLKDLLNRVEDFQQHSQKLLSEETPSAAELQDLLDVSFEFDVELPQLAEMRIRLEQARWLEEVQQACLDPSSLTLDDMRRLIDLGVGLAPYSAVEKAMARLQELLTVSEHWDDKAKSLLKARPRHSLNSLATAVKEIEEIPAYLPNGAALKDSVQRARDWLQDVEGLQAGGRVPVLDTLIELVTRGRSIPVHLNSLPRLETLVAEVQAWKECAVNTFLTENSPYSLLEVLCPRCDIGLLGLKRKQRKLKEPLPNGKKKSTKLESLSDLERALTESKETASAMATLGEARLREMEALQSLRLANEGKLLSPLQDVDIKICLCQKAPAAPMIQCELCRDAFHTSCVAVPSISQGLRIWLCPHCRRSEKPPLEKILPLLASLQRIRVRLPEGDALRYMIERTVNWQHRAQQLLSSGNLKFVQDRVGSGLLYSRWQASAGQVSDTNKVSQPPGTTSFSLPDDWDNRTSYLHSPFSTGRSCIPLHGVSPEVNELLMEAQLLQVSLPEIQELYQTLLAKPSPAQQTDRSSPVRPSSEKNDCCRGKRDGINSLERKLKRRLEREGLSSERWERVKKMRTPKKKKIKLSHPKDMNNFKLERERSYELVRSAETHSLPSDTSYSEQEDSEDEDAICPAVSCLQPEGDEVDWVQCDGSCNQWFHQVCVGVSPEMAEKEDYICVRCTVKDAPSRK", "experiment": "Primary screen for KDM5B Histone Demethylases FDH-coupled qHTS; also: nearly all actives have a fitted effect of over 70% in size; as to activity change, negative = inhibition: 0% is about no effect", "conditions": "FDH-coupled NADH fluorescence (FDH is formaldehyde dehydrogenase); activity change, negative = inhibition: at 57.7 µM (top of the series) unless noted", "procedure,_shortened": "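qHTS format, multiple compound concentrations. Buffer 50 mM HEPES pH 7.5/0.01% Tween-20; 200 nM KDM5BΔAP final; 10 min compound preincubation; substrate-mix levels 12.5 µM peptide, 25 µM α-KG, 0.25 mM NAD⁺; 30 min RT; ΔRFU.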", "values": [{"smiles": "Cc1cc2nc3c(=O)[nH]c(=O)[nH]c3nc2c([N+](=O)[O-])c1N", "Potency": "inconclusive: 25.1 µM [inhibitor, partial curve, poor fit]"}, {"smiles": "Cc1ccc(S(=O)(=O)CCC(=O)Oc2ccc(C(C)C)cc2)cc1", "activity change, negative = inhibition": "inactive: -22.1%"}, {"smiles": "O=C(Nc1ccc(N2CCC(N3CCCCC3)CC2)c(C(=O)O)c1)c1ccccc1", "Potency": "inconclusive: 15.8 µM [inhibitor, partial curve, poor fit]"}, {"smiles": "COc1cccc(OCCNC(=O)c2ccc3[nH]c(C)c(C)c3c2)c1", "activity change, negative = inhibition": "inactive: -24.7%"}, {"smiles": "O=C(Cn1c(NCc2ccccc2)nc2ccccc21)N1CCN(c2ccccc2)CC1", "activity change, negative = inhibition": "inactive: 11.4%"}, {"smiles": "Cc1ccc(NC(=O)N2CCCC(c3nc(-c4ccc(F)cc4)no3)C2)cc1", "note": "(stereo not drawn)", "activity change, negative = inhibition": "inactive: 3.97%"}, {"smiles": "Cc1cccc(-c2nc3c4ccccc4nc(NCc4ccccc4Cl)n3n2)c1", "activity change, negative = inhibition": "inactive: -16.9%"}, {"smiles": "Cc1cc(Nc2cccc(C(F)(F)F)c2)ncn1", "Potency": "inconclusive: 39.8 µM [inhibitor, single point]"}, {"smiles": "CN(C)C(=O)C1CCc2nnc(-c3ccc(Cl)nc3)n21", "note": "(stereo not drawn)", "activity change, negative = inhibition": "inactive: 6.69% [at 149 µM]"}, {"smiles": "Cc1ccc2nc(-c3ccncc3)c(Nc3ccccc3C)n2c1", "Potency": "inconclusive: 35.5 µM [inhibitor, single point]"}, {"smiles": "O=C(Nc1cccc(-c2cccc(F)c2)c1)C1CCN(CC2CCOC2)CC1", "note": "(stereo not drawn)", "activity change, negative = inhibition": "inactive: -33%"}, {"smiles": "COc1ccc(-c2c(C)c3cc(OS(=O)(=O)c4ccc(F)cc4)ccc3oc2=O)cc1OC", "Potency": "inconclusive: 35.5 µM [inhibitor, partial curve, poor fit]"}, {"smiles": "COc1ccc2c(c1)c1c(c(=O)n(-c3cccc(C)c3)c(=O)n1CC(=O)Nc1c(C)cc(C)cc1C)n2C", "Potency": "inconclusive: 35.5 µM [inhibitor, single point]"}, {"smiles": "COCCN(C)C[C@H]1C[C@H](CO)CN(C(=O)c2ccc(C(C)C)[nH]c2=O)C1", "activity change, negative = inhibition": "inactive: -34.1%"}, {"smiles": "COc1ccc(Cl)cc1C(=O)Nc1ccc(C(C)(C)C)cc1", "activity change, negative = inhibition": "inactive: 12.1%"}, {"smiles": "O=C(CSC1=Nc2ccccc2C2=NC(c3ccccc3)C(=O)N12)Nc1ccc(F)cc1", "note": "(stereo not drawn)", "activity change, negative = inhibition": "inactive: -20.1%"}, {"smiles": "CN(Cc1ccccc1)c1ncc2c(n1)CC(C)(C)CC2NC1CCOCC1", "note": "(stereo not drawn)", "Potency": "inconclusive: 39.8 µM [inhibitor, single point]"}, {"smiles": "COc1ccc(NC(=O)CSc2oc(-c3ccc(C)cc3)nc2S(=O)(=O)c2ccc(C)cc2)c(OC)c1", "Potency": "inconclusive: 15.8 µM [inhibitor, partial curve, poor fit]"}, {"smiles": "COc1ccc(-c2cnn3c(C)cc(C)nc23)cc1S(=O)(=O)NCc1ccccc1C(F)(F)F", "Potency": "inconclusive: 28.2 µM [inhibitor, single point]"}, {"smiles": "Cc1cc2c(cc3c(SCc4ccc(Cl)cc4)nnc(C)n32)o1", "Potency": "inconclusive: 31.6 µM [inhibitor, single point]"}, {"smiles": "CCC(=O)Nc1ccc(N2CCOCC2)c(S(=O)(=O)Nc2ccc(Cl)cc2)c1", "Potency": "inconclusive: 8.91 µM [inhibitor, partial curve, poor fit]"}, {"smiles": "CCC(C)NC(=O)C(NC(=O)c1ccc(OC)cc1)C1CCN(C(=O)c2cccc(OC)c2)CC1", "note": "(stereo not drawn)", "Potency": "inconclusive: 25.1 µM [inhibitor, single point]"}, {"smiles": "Cc1ccc(OCCCC(=O)Oc2ccc3c(C)cc(=O)oc3c2)cc1", "activity change, negative = inhibition": "inactive: 528%"}, {"smiles": "Cc1csc(NC(=O)c2cc(=O)[nH]c3ccccc23)n1", "Potency": "inconclusive: 31.6 µM [inhibitor, partial curve, poor fit]"}, {"smiles": "COc1ccc(-c2nc(CS(=O)Cc3ccccc3C)cs2)c(OC)c1", "note": "(stereo not drawn)", "Potency": "inconclusive: 25.1 µM [inhibitor, partial curve, poor fit]"}, {"smiles": "O=C(c1ccc2c(c1)OCO2)N1CCn2c(nn(-c3ccc(F)cc3F)c2=O)C1", "Potency": "inconclusive: 22.4 µM [inhibitor, single point]"}, {"smiles": "COc1cccc(C2NC(=O)NC(C)=C2C(=O)c2ccc(Cl)cc2)c1", "note": "(stereo not drawn)", "activity change, negative = inhibition": "inactive: 2.02%"}, {"smiles": "NS(=O)(=O)c1ccc(NNC(=O)c2ccc(NS(=O)(=O)c3cccs3)cc2)c([N+](=O)[O-])c1", "activity change, negative = inhibition": "inactive: -6.63%"}, {"smiles": "Cc1cccc2c1-c1sc(C(=O)NCCc3ccc(Cl)cc3)cc1CO2", "Potency": "inconclusive: 15.8 µM [inhibitor, partial curve, poor fit]"}, {"smiles": "CNC(=O)c1ccc2c(c1)NC(C)(COc1ccccc1)CO2", "note": "(stereo not drawn)", "Potency": "active: 31.6 µM"}, {"smiles": "CCn1c(CCCOc2ccc(Cl)cc2C)n[nH]c1=S", "activity change, negative = inhibition": "inactive: 1.98%"}, {"smiles": "Cc1ccc(C(O)CNC(=O)C2CC=CCC2)cc1", "note": "(stereo not drawn)", "activity change, negative = inhibition": "inactive: 18%"}, {"smiles": "O=C(Cc1ccc(Cl)cc1)N1CCN(c2ccc(F)cc2)CC1", "activity change, negative = inhibition": "inactive: 22%"}, {"smiles": "COCCNc1nc(-c2ccc(NC(C)=O)cc2)cs1", "activity change, negative = inhibition": "inactive: -19.2%"}, {"smiles": "COc1ccc(-c2nn(C)c3sc(C(=O)N4CCN(c5ccccc5F)CC4)cc23)cc1OC", "Potency": "inconclusive: 3.16 µM [inhibitor, partial curve, poor fit]"}, {"smiles": "O=C(O)CC(NC(=O)c1ccc(-c2ccc(F)cc2)s1)C(=O)O", "note": "(stereo not drawn)", "Potency": "inconclusive: 28.2 µM [inhibitor, partial curve, poor fit]"}, {"smiles": "CN(Cc1ccccc1)C(=O)c1ccc2c(c1)NC(C)(CCCCN1CCOCC1)CO2", "note": "(stereo not drawn)", "Potency": "inconclusive: 25.1 µM [inhibitor, partial curve]"}, {"smiles": "Cc1ccc(N2CC(NC(=O)Nc3nc4ccccc4s3)CC2=O)cc1", "note": "(stereo not drawn)", "activity change, negative = inhibition": "inactive: 8.3%"}, {"smiles": "CCc1ccc(C(=O)N2CCCC(c3noc(-c4cc5c(=O)[nH]c(C)cn5n4)n3)C2)cc1", "note": "(stereo not drawn)", "Potency": "active: 25.1 µM"}, {"smiles": "CCc1nc(-c2ccc(-c3ccc(C)cc3)nc2OC)no1", "Potency": "inconclusive: 22.4 µM [inhibitor, partial curve, poor fit]"}, {"smiles": "C1=C(CCNc2ncncc2-c2nc(-c3ccccc3)no2)CCCC1", "Potency": "active: 28.2 µM"}, {"smiles": "O=C(CBr)c1ccc([N+](=O)[O-])c(CS(=O)(=O)c2ccc(Cl)cc2)c1", "Potency": "inconclusive: 15.8 µM [inhibitor, partial curve, poor fit]"}, {"smiles": "COc1ccc(NC(=O)c2ccc3c(c2)c(C)c(C)n3Cc2ccc(F)cc2)cc1", "Potency": "inconclusive: 17.8 µM [inhibitor, partial curve, poor fit]"}, {"smiles": "Cc1ccc(CNC(=O)C2(CCO)CCN(Cc3ccccc3)C2)o1", "note": "(stereo not drawn)", "activity change, negative = inhibition": "inactive: -10.7%"}, {"smiles": "COc1ccc(-c2cnc3[nH]cc(CC(=O)N(C)C)c3c2)cc1", "Potency": "inconclusive: 28.2 µM [inhibitor, partial curve, poor fit]"}, {"smiles": "CC(=O)Nc1ccccc1-c1cn(C)c(=O)n2cc(COc3ccc(Cl)cc3)nc12", "Potency": "inconclusive: 31.6 µM [inhibitor, single point]"}, {"smiles": "Cc1nnc([C@H]2CCN(Cc3cc4ccccc4o3)C2)o1", "Potency": "inconclusive: 31.6 µM [inhibitor, single point]"}, {"smiles": "COCCNC(=O)CCc1c(C)nn(-c2ccc(F)cc2)c1Oc1ccccc1F", "Potency": "inconclusive: 31.6 µM [inhibitor, single point]"}, {"smiles": "COc1ccc(-c2cc(C(=O)NCCCN3CCOCC3)c3ccccc3n2)cc1OC", "activity change, negative = inhibition": "inactive: -18.2%"}, {"smiles": "CSc1ccc(CCNC(=O)CCc2nnc3ccc(NCc4ccc(Cl)cc4)nn23)cc1", "activity change, negative = inhibition": "inactive: 10.4%"}, {"smiles": "Cc1cc(C)c2c(-n3cccc3)c(C(=O)NCCCN3CCCCC3)sc2n1", "Potency": "inconclusive: 35.5 µM [inhibitor, single point]"}, {"smiles": "O=C(CCC1CCCC1)N1CCCC(Cc2nc(C3CCOCC3)no2)C1", "note": "(stereo not drawn)", "activity change, negative = inhibition": "inactive: -9.9%"}, {"smiles": "COCCN1Cc2ccc(Nc3cccnc3)nc2C(C)(C(=O)Nc2cccc(OC)c2)C1", "note": "(stereo not drawn)", "Potency": "inconclusive: 15.8 µM [inhibitor, partial curve, poor fit]"}, {"smiles": "CCN(CC)S(=O)(=O)c1ccc(/C=C\\c2onc(C)c2NC(=O)C2CC2)cc1", "Potency": "inconclusive: 20 µM [inhibitor, partial curve, poor fit]"}, {"smiles": "COc1cc(/C=C2\\N=C(C)OC2=O)cc(Cl)c1OC(C)=O", "Potency": "inconclusive: 20 µM [inhibitor, partial curve, poor fit]"}, {"smiles": "COCC(=O)N1CCC(Cc2nc(C3CCOCC3)no2)CC1", "activity change, negative = inhibition": "inactive: -4.82%"}, {"smiles": "Cc1ccccc1-c1nnn(CC(=O)Nc2ccc(Cl)c(S(=O)(=O)N3CCOCC3)c2)n1", "activity change, negative = inhibition": "inactive: -3.03%"}, {"smiles": "COc1ccc(NC(=O)CCC2CCN(C(=O)c3ccc(OC)o3)CC2)c(OC)c1", "Potency": "inconclusive: 20 µM [inhibitor, partial curve]"}, {"smiles": "O=C(O)c1cc2ccc(-c3ccccc3)cc2[nH]1", "Potency": "inconclusive: 25.1 µM [inhibitor, partial curve, poor fit]"}, {"smiles": "COc1ccc(-c2cc(N3CCC(NC(=O)CCc4ccccc4)CC3)n[nH]2)cc1", "Potency": "inconclusive: 12.6 µM [inhibitor, partial curve]"}, {"smiles": "O=C(NC[C@H]1O[C@@H](CC(=O)N2CCN(c3ccccn3)CC2)[C@H](O)[C@@H]1O)Nc1ccccc1", "Potency": "inconclusive: 28.2 µM [inhibitor, partial curve, poor fit]"}, {"smiles": "Cc1ccc(-c2ccc(C(=O)NCCCn3ccnc3C(C)C)cn2)cc1C", "Potency": "inconclusive: 25.1 µM [inhibitor, partial curve, poor fit]"}, {"smiles": "O=C(c1ccccc1OCC1CCCN(Cc2ccc(F)cc2)C1)N1CCCCC1", "note": "(stereo not drawn)", "activity change, negative = inhibition": "inactive: -14.8%"}, {"smiles": "CC(=O)NN1C(=O)c2ccccc2NC1c1ccco1", "note": "(stereo not drawn)", "Potency": "inconclusive: 28.2 µM [inhibitor, partial curve, poor fit]"}, {"smiles": "Cc1occc1C(=O)/C(C#N)=C/c1ccc(O)c(Br)c1", "Potency": "inconclusive: 22.4 µM [inhibitor, single point]"}, {"smiles": "O=C([C@@H]1C[C@H](c2ccc(F)cc2)N(Cc2ccccc2Cl)C1)N1CC(O)C1", "Potency": "inconclusive: 44.7 µM [inhibitor, single point]"}, {"smiles": "Oc1ccccc1CN1CC(CNc2cccnc2)C2(C1)CN(c1ccccc1)C2", "note": "(stereo not drawn)", "Potency": "inconclusive: 31.6 µM [inhibitor, partial curve, poor fit]"}, {"smiles": "Cc1cn2c(=O)cc(CSc3ccccc3)nc2s1", "activity change, negative = inhibition": "inactive: 1.25%"}]}]}
